# The supplement of paper PMC8728848
# This is one part of the list.
# B1: MGL (Homo sapiens), Q8IUN9 (protein)
# chain: MTRTYENFQYLENKVKVQGFKNGPLPLQSLLQRLCSGPCHLLLSLGLGLLLLVIICVVGFQNSKFQRDLVTLRTDFSNFTSNTVAEIQALTSQGSSLEETIASLKAEVEGFKQERQAGVSELQEHTTQKAHLGHCPHCPSVCVPVHSEMLLRVQQLVQDLKKLTCQVATLNNNASTEGTCCPVNWVEHQDSCYWFSHSGMSWAEAEKYCQLKNAHLVVINSREEQNFVQKYLGSAYTWMGLSDPEGAWKWVDGTDYATGFQNWKPGQPDDWQGHGLGGGEDCAHFHPDGRWNDDVCQRPYHWVCEAGLGQTSQESH
# How the values were obtained:
# Assay in all cases: glycan array binding signal (z-score within array); higher = stronger binding
# Details in all cases: glycan notation: IUPAC condensed, linker removed
# [1] = target: Gal(b1-4)GlcNAc(b1-3)Gal(b1-3)GlcNAc
# In short: (§1)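 The Consortium for Functional Glycomics database supplied 3228 glycan arrays, of which those lacking an available protein sequence were dropped. The binding signal, a within-array Z-score, was averaged across arrays of the same protein sequence and across linkers. Negative scores can be read as non-binding.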
# [2] = target: Gal(b1-4)GlcNAc(b1-3)Gal(b1-4)Glc
# In short: as §1
# [3] = target: Gal(b1-4)GlcNAc(b1-3)Gal(b1-4)GlcNAc
# In short: as §1
# [4] = target: Gal(b1-4)GlcNAc(b1-3)Gal(b1-4)GlcNAc(b1-2)Man(a1-3)[Gal(b1-4)GlcNAc(b1-3)Gal(b1-4)GlcNAc(b1-2)Man(a1-6)]Man(b1-4)GlcNAc(b1-4)GlcNAc
# In short: as §1
# [5] = target: Gal(b1-4)GlcNAc(b1-3)Gal(b1-4)GlcNAc(b1-2)Man(a1-3)[Gal(b1-4)GlcNAc(b1-3)Gal(b1-4)GlcNAc(b1-2)Man(a1-6)]Man(b1-4)GlcNAc(b1-4)[Fuc(a1-6)]GlcNAc
# In short: as §1
# [6] = target: Gal(b1-4)GlcNAc(b1-3)Gal(b1-4)GlcNAc(b1-2)[Gal(b1-4)GlcNAc(b1-3)Gal(b1-4)GlcNAc(b1-6)]Man(a1-6)[Gal(b1-4)GlcNAc(b1-3)Gal(b1-4)GlcNAc(b1-2)Man(a1-3)]Man(b1-4)GlcNAc(b1-4)GlcNAc
# In short: as §1
# [7] = target: Gal(b1-4)GlcNAc(b1-3)Gal(b1-4)GlcNAc(b1-2)[Gal(b1-4)GlcNAc(b1-3)Gal(b1-4)GlcNAc(b1-6)]Man(a1-6)[Gal(b1-4)GlcNAc(b1-3)Gal(b1-4)GlcNAc(b1-2)Man(a1-3)]Man(b1-4)GlcNAc(b1-4)[Fuc(a1-6)]GlcNAc
# In short: as §1
# [8] = target: Gal(b1-4)GlcNAc(b1-3)Gal(b1-4)GlcNAc(b1-3)Gal(b1-4)GlcNAc
# In short: as §1
# [9] = target: Gal(b1-4)GlcNAc(b1-3)Gal(b1-4)GlcNAc(b1-3)Gal(b1-4)GlcNAc(b1-2)Man(a1-3)[Gal(b1-4)GlcNAc(b1-3)Gal(b1-4)GlcNAc(b1-3)Gal(b1-4)GlcNAc(b1-2)Man(a1-6)]Man(b1-4)GlcNAc(b1-4)GlcNAc
# In short: as §1
# [10] = target: Gal(b1-4)GlcNAc(b1-3)Gal(b1-4)GlcNAc(b1-3)Gal(b1-4)GlcNAc(b1-2)Man(a1-3)[Gal(b1-4)GlcNAc(b1-3)Gal(b1-4)GlcNAc(b1-3)Gal(b1-4)GlcNAc(b1-2)Man(a1-6)]Man(b1-4)GlcNAc(b1-4)[Fuc(a1-6)]GlcNAc
# In short: as §1
# [11] = target: Gal(b1-4)GlcNAc(b1-3)Gal(b1-4)GlcNAc(b1-3)Gal(b1-4)GlcNAc(b1-2)[Gal(b1-4)GlcNAc(b1-3)Gal(b1-4)GlcNAc(b1-3)Gal(b1-4)GlcNAc(b1-6)]Man(a1-6)[Gal(b1-4)GlcNAc(b1-3)Gal(b1-4)GlcNAc(b1-3)Gal(b1-4)GlcNAc(b1-2)Man(a1-3)]Man(b1-4)GlcNAc(b1-4)[Fuc(a1-6)]GlcNAc
# In short: as §1
# [12] = target: Gal(b1-4)GlcNAc(b1-3)Gal(b1-4)GlcNAc(b1-3)Gal(b1-4)GlcNAc(b1-3)Gal(b1-4)GlcNAc(b1-2)Man(a1-3)[Gal(b1-4)GlcNAc(b1-3)Gal(b1-4)GlcNAc(b1-3)Gal(b1-4)GlcNAc(b1-3)Gal(b1-4)GlcNAc(b1-2)Man(a1-6)]Man(b1-4)GlcNAc(b1-4)GlcNAc
# In short: as §1
# [13] = target: Gal(b1-4)GlcNAc(b1-3)Gal(b1-4)GlcNAc(b1-3)Gal(b1-4)GlcNAc(b1-3)Gal(b1-4)GlcNAc(b1-2)Man(a1-3)[Gal(b1-4)GlcNAc(b1-3)Gal(b1-4)GlcNAc(b1-3)Gal(b1-4)GlcNAc(b1-3)Gal(b1-4)GlcNAc(b1-2)Man(a1-6)]Man(b1-4)GlcNAc(b1-4)[Fuc(a1-6)]GlcNAc
# In short: as §1
# [14] = target: Gal(b1-4)GlcNAc(b1-3)Gal(b1-4)GlcNAc(b1-3)Gal(b1-4)GlcNAc(b1-3)Gal(b1-4)GlcNAc(b1-2)[Gal(b1-4)GlcNAc(b1-3)Gal(b1-4)GlcNAc(b1-3)Gal(b1-4)GlcNAc(b1-3)Gal(b1-4)GlcNAc(b1-6)]Man(a1-6)[Gal(b1-4)GlcNAc(b1-3)Gal(b1-4)GlcNAc(b1-3)Gal(b1-4)GlcNAc(b1-3)Gal(b1-4)GlcNAc(b1-2)Man(a1-3)]Man(b1-4)GlcNAc(b1-4)[Fuc(a1-6)]GlcNAc
# In short: as §1
# [15] = target: Gal(b1-4)GlcNAc(b1-3)Gal(b1-4)GlcNAc(b1-3)Gal(b1-4)GlcNAc(b1-3)Gal(b1-4)GlcNAc(b1-3)Gal(b1-4)GlcNAc(b1-2)Man(a1-3)[Gal(b1-4)GlcNAc(b1-3)Gal(b1-4)GlcNAc(b1-3)Gal(b1-4)GlcNAc(b1-3)Gal(b1-4)GlcNAc(b1-3)Gal(b1-4)GlcNAc(b1-2)Man(a1-6)]Man(b1-4)GlcNAc(b1-4)GlcNAc
# In short: as §1
# [16] = target: Gal(b1-4)GlcNAc(b1-3)Gal(b1-4)GlcNAc(b1-3)Gal(b1-4)GlcNAc(b1-3)Gal(b1-4)GlcNAc(b1-3)Gal(b1-4)GlcNAc(b1-2)Man(a1-3)[Gal(b1-4)GlcNAc(b1-3)Gal(b1-4)GlcNAc(b1-3)Gal(b1-4)GlcNAc(b1-3)Gal(b1-4)GlcNAc(b1-3)Gal(b1-4)GlcNAc(b1-2)Man(a1-6)]Man(b1-4)GlcNAc(b1-4)[Fuc(a1-6)]GlcNAc
# In short: as §1
# [17] = target: Gal(b1-4)GlcNAc(b1-3)Gal(b1-4)GlcNAc(b1-3)Gal(b1-4)GlcNAc(b1-3)Gal(b1-4)GlcNAc(b1-3)Gal(b1-4)GlcNAc(b1-2)[Gal(b1-4)GlcNAc(b1-3)Gal(b1-4)GlcNAc(b1-3)Gal(b1-4)GlcNAc(b1-3)Gal(b1-4)GlcNAc(b1-3)Gal(b1-4)GlcNAc(b1-6)]Man(a1-6)[Gal(b1-4)GlcNAc(b1-3)Gal(b1-4)GlcNAc(b1-3)Gal(b1-4)GlcNAc(b1-3)Gal(b1-4)GlcNAc(b1-3)Gal(b1-4)GlcNAc(b1-2)Man(a1-3)]Man(b1-4)GlcNAc(b1-4)[Fuc(a1-6)]GlcNAc
# In short: as §1
# [18] = target: Gal(b1-4)GlcNAc(b1-3)Gal(b1-4)GlcNAc(b1-3)Gal(b1-4)GlcNAc(b1-3)Gal(b1-4)GlcNAc(b1-3)Gal(b1-4)GlcNAc(b1-3)Gal(b1-4)GlcNAc(b1-2)Man(a1-3)[Gal(b1-4)GlcNAc(b1-3)Gal(b1-4)GlcNAc(b1-3)Gal(b1-4)GlcNAc(b1-3)Gal(b1-4)GlcNAc(b1-3)Gal(b1-4)GlcNAc(b1-3)Gal(b1-4)GlcNAc(b1-2)Man(a1-6)]Man(b1-4)GlcNAc(b1-4)GlcNAc
# In short: as §1
# [19] = target: Gal(b1-4)GlcNAc(b1-3)Gal(b1-4)GlcNAc(b1-3)GalNAc
# In short: as §1
binder,measurement,setting,value
B1,glycan array binding signal (z-score),[1],-0.248
same,glycan array binding signal (z-score),[2],-0.239
same,glycan array binding signal (z-score),[3],-0.242
same,glycan array binding signal (z-score),[4],-0.235
same,glycan array binding signal (z-score),[5],-0.232
same,glycan array binding signal (z-score),[6],-0.128
same,glycan array binding signal (z-score),[7],-0.217
same,glycan array binding signal (z-score),[8],-0.24
same,glycan array binding signal (z-score),[9],-0.229
same,glycan array binding signal (z-score),[10],-0.222
same,glycan array binding signal (z-score),[11],-0.218
same,glycan array binding signal (z-score),[12],-0.224
same,glycan array binding signal (z-score),[13],-0.226
same,glycan array binding signal (z-score),[14],-0.219
same,glycan array binding signal (z-score),[15],-0.223
same,glycan array binding signal (z-score),[16],-0.18
same,glycan array binding signal (z-score),[17],-0.188
same,glycan array binding signal (z-score),[18],-0.218
same,glycan array binding signal (z-score),[19],-0.271
